# In the supplement of paper PMC8728848:
# The list shows a part of the results.
# Legend:
# Assay in all cases: glycan array binding signal (z-score within array); higher = stronger binding
# Details in all cases: glycan notation: IUPAC condensed, linker removed
# [1] = molecular target: Neu(a2-3)Gal(b1-4)[Fuc(a1-3)]GlcNAc(b1-3)Gal(b1-4)Glc
# Outline: (§1)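 The binding signal is a Z-score computed within each array. Data were drawn from 3228 arrays in the Consortium for Functional Glycomics database, restricted to those with a known protein sequence. Scores were averaged over arrays of the same protein sequence at different concentrations or buffers, and over linkers, and negative values can be taken as non-binding.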
# [2] = molecular target: Neu(a2-3)Gal(b1-4)[Fuc(a1-3)]GlcNAc6S(b1-3)Gal(b1-4)Glc
# Outline: as §1
# [3] = molecular target: Neu(a2-3)Gal6S(b1-4)[Fuc(a1-3)]GlcN(b1-3)Gal(b1-4)Glc
# Outline: as §1
# [4] = molecular target: Neu(a2-6)Gal(b1-4)Glc
# Outline: as §1
# [5] = molecular target: Neu4Ac5Ac(a2-3)Gal(b1-4)Glc
# Outline: as §1
# [6] = molecular target: Neu4Me5Ac(a2-3)Gal(b1-4)Glc
# Outline: as §1
# [7] = molecular target: Neu5Ac(a2-2)Glc
# Outline: as §1
# [8] = molecular target: Neu5Ac(a2-3)4dGal(b1-4)[Fuc(a1-3)]GlcNAc(b1-3)Gal
# Outline: as §1
# [9] = molecular target: Neu5Ac(a2-3)6dGal(b1-4)[Fuc(a1-3)]GlcNAc(b1-3)Gal
# Outline: as §1
# [10] = molecular target: Neu5Ac(a2-3)Gal
# Outline: as §1
# [11] = molecular target: Neu5Ac(a2-3)Gal(b1-3)6dGalNAc
# Outline: as §1
# [12] = molecular target: Neu5Ac(a2-3)Gal(b1-3)GalNAc
# Outline: as §1
# [13] = molecular target: Neu5Ac(a2-3)Gal(b1-3)GalNAc(b1-3)Gal(a1-4)Gal(b1-4)Glc
# Outline: as §1
# [14] = molecular target: Neu5Ac(a2-3)Gal(b1-3)GalNAc(b1-3)Gal(b1-4)GlcNAc
# Outline: as §1
# [15] = molecular target: Neu5Ac(a2-3)Gal(b1-3)GalNAc(b1-4)[Neu5Ac(a2-3)]Gal(b1-4)Glc
# Outline: as §1
# [16] = molecular target: Neu5Ac(a2-3)Gal(b1-3)GalNAc(b1-4)[Neu5Ac(a2-8)Neu5Ac(a2-3)]Gal(b1-4)Glc
# Outline: as §1
# [17] = molecular target: Neu5Ac(a2-3)Gal(b1-3)GalNAc6S
# Outline: as §1
# [18] = molecular target: Neu5Ac(a2-3)Gal(b1-3)GalNAc6S(b1-4)Gal(b1-4)Glc
# Outline: as §1
# [19] = molecular target: Neu5Ac(a2-3)Gal(b1-3)GlcNAc
# Outline: as §1
# [20] = molecular target: Neu5Ac(a2-3)Gal(b1-3)GlcNAc(b1-2)Man
# Outline: as §1
# [21] = molecular target: Neu5Ac(a2-3)Gal(b1-3)GlcNAc(b1-2)Man(a1-3)[GlcNAc(b1-4)][Neu5Ac(a2-3)Gal(b1-3)GlcNAc(b1-2)Man(a1-6)]Man(b1-4)GlcNAc(b1-4)GlcNAc
# Outline: as §1
# [22] = molecular target: Neu5Ac(a2-3)Gal(b1-3)GlcNAc(b1-2)Man(a1-3)[Neu5Ac(a2-3)Gal(b1-3)GlcNAc(b1-2)Man(a1-6)]Man(b1-4)GlcNAc(b1-4)GlcNAc
# Outline: as §1
# [23] = molecular target: Neu5Ac(a2-3)Gal(b1-3)GlcNAc(b1-3)Gal(b1-3)GlcNAc
# Outline: as §1
# [24] = molecular target: Neu5Ac(a2-3)Gal(b1-3)GlcNAc(b1-3)Gal(b1-4)Glc
# Outline: as §1
# [25] = molecular target: Neu5Ac(a2-3)Gal(b1-3)GlcNAc(b1-3)Gal(b1-4)GlcNAc
# Outline: as §1
# [26] = molecular target: Neu5Ac(a2-3)Gal(b1-3)GlcNAc(b1-3)GalNAc
# Outline: as §1
# [27] = molecular target: Neu5Ac(a2-3)Gal(b1-3)GlcNAc(b1-3)[Fuc(a1-3)[Gal(b1-4)]GlcNAc(b1-6)]Gal(b1-4)Glc
# Outline: as §1
# [28] = molecular target: Neu5Ac(a2-3)Gal(b1-3)GlcNAc(b1-4)Gal(b1-4)Glc
# Outline: as §1
# [29] = molecular target: Neu5Ac(a2-3)Gal(b1-3)GlcNAc(b1-6)GalNAc
# Outline: as §1
# [30] = molecular target: Neu5Ac(a2-3)Gal(b1-3)GlcNAc6S
# Outline: as §1
# [31] = molecular target: Neu5Ac(a2-3)Gal(b1-3)[Fuc(a1-3)]GlcN(b1-3)Gal(b1-4)Glc
# Outline: as §1
# [32] = molecular target: Neu5Ac(a2-3)Gal(b1-3)[Fuc(a1-4)]GlcNAc
# Outline: as §1
# [33] = molecular target: Neu5Ac(a2-3)Gal(b1-3)[Fuc(a1-4)]GlcNAc(b1-3)Gal(b1-3)[Fuc(a1-4)]GlcNAc
# Outline: as §1
# [34] = molecular target: Neu5Ac(a2-3)Gal(b1-3)[Fuc(a1-4)]GlcNAc(b1-3)Gal(b1-4)Glc
# Outline: as §1
# [35] = molecular target: Neu5Ac(a2-3)Gal(b1-3)[Fuc(a1-4)]GlcNAc(b1-3)Gal(b1-4)[Fuc(a1-3)]GlcNAc
# Outline: as §1
# [36] = molecular target: Neu5Ac(a2-3)Gal(b1-3)[GlcNAc(b1-6)]GalNAc
# Outline: as §1
# [37] = molecular target: Neu5Ac(a2-3)Gal(b1-3)[Neu5Ac(a2-3)Gal(b1-4)]GlcNAc
# Outline: as §1
# [38] = molecular target: Neu5Ac(a2-3)Gal(b1-3)[Neu5Ac(a2-6)]GalNAc
# Outline: as §1
binder,measurement,setting,value
"PNA (Arachis hypogaea), P02872 (protein) MKPFCVFLTFFLLLAASSKKVDSAETVSFNFNSFSEGNPAINFQGDVTVLSNGNIQLTNLNKVNSVGRVLYAMPVRIWSSATGNVASFLTSFSFEMKDIKDYDPADGIIFFIAPEDTQIPAGSIGGGTLGVSDTKGAGHFVGVEFDTYSNSEYNDPPTDHVGIDVNSVDSVKTVPWNSVSGAVVKVTVIYDSSTKTLSVAVTNDNGDITTIAQVVDLKAKLPERVKFGFSASGSLGGRQIHLIRSWSFTSTLITTTRRSIDNNEKKIMNMASA",glycan array binding signal (z-score),[1],-0.195
same,glycan array binding signal (z-score),[2],-0.195
same,glycan array binding signal (z-score),[3],-0.195
same,glycan array binding signal (z-score),[4],-0.195
same,glycan array binding signal (z-score),[5],-0.195
same,glycan array binding signal (z-score),[6],-0.195
same,glycan array binding signal (z-score),[7],-0.195
same,glycan array binding signal (z-score),[8],-0.195
same,glycan array binding signal (z-score),[9],-0.195
same,glycan array binding signal (z-score),[10],-0.171
same,glycan array binding signal (z-score),[11],-0.195
same,glycan array binding signal (z-score),[12],-0.228
same,glycan array binding signal (z-score),[13],-0.112
same,glycan array binding signal (z-score),[14],-0.201
same,glycan array binding signal (z-score),[15],-0.153
same,glycan array binding signal (z-score),[16],-0.171
same,glycan array binding signal (z-score),[17],-0.167
same,glycan array binding signal (z-score),[18],-0.195
same,glycan array binding signal (z-score),[19],-0.179
same,glycan array binding signal (z-score),[20],-0.144
same,glycan array binding signal (z-score),[21],-0.353
same,glycan array binding signal (z-score),[22],-0.061
same,glycan array binding signal (z-score),[23],-0.182
same,glycan array binding signal (z-score),[24],-0.192
same,glycan array binding signal (z-score),[25],-0.167
same,glycan array binding signal (z-score),[26],-0.158
same,glycan array binding signal (z-score),[27],-0.195
same,glycan array binding signal (z-score),[28],-0.138
same,glycan array binding signal (z-score),[29],-0.269
same,glycan array binding signal (z-score),[30],-0.123
same,glycan array binding signal (z-score),[31],-0.195
same,glycan array binding signal (z-score),[32],-0.192
same,glycan array binding signal (z-score),[33],-0.129
same,glycan array binding signal (z-score),[34],-0.195
same,glycan array binding signal (z-score),[35],-0.205
same,glycan array binding signal (z-score),[36],-0.219
same,glycan array binding signal (z-score),[37],-0.21
same,glycan array binding signal (z-score),[38],-0.176
